# Results reported in paper PMC5075699.
# How the values were obtained:
# [1] = ref Sidrauski et al., 2013; Halliday et al., 2015; cited from earlier work
# nontransgenic mice = experiment: Pilot Morris water maze #1 (spatial learning and memory); details: 72-hour probe trial, one sample t test against 25%
smiles,measurement,setting,value
O=C(COc1ccc(Cl)cc1)NC1CCC(NC(=O)COc2ccc(Cl)cc2)CC1 (stereo not drawn) [ISRIB],blood-brain-barrier penetration,[1],not significantly excluded from the brain by the blood–brain-barrier
same,time in the target quadrant compared to chance,"nontransgenic mice; 0.1 mpk, p = 0.85",did not
same,time in the target quadrant compared to chance,"nontransgenic mice; 0.25 mpk, p = 0.009",spent significantly more time in the target quadrant compared to chance
